PubChem BioAssay AID485281 (National Center for Advancing Translational Sciences (NCATS), 2010)
About 260 (0.074%) of roughly 350,000 compounds were called active. This list was built around the results that the source calls inconclusive (neither active nor inactive); the mix of calls is not that of the screen. Calls come from the whole dose curve; as a rule, active = well fitted inhibition curve with a large enough effect; inconclusive = small, poorly fitted or top-dose-only effect; inactive = no such curve, though single readings can be large or run the other way. A potency beside an inconclusive call is a rough fit, not a confirmed value.

These compounds were tested against Ferritin light chain (Equus caballus) (UniProt P02791) (assay: qHTS Assay for Identification of Novel General Anesthetics). Settings: apoferritin/1-aminoanthracene competitive binding, fluorescence; activity change, negative = displacement: at 77.5 µM (top of the series).
How it was run: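 Horse-spleen apoferritin (10 uM) was mixed with 50% saturated 1-aminoanthracene in PBS, exposed to compounds for 10 min at room temperature, and read for fluorescence (ex 380 nm, em 535 nm). Competitive displacement was fitted with a four-parameter Hill equation.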
% is set by controls: 0 for no effect and ±100 for the full control effect; potency is the fitted concentration of half-maximal effect; tags give direction and shape of the fitted curve.
Note: nearly all actives have a fitted effect of over 20% in size.

UniProt P02791, sequence (P02791 whole entry, looked up): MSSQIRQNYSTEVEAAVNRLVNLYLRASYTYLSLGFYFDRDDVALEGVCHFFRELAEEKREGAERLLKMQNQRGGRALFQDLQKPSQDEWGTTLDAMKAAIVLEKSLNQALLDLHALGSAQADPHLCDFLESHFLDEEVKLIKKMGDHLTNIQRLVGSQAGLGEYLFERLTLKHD

SMILES	Potency	activity change, negative = displacement
Fc1cccc(NC(=S)N2CCCCC2)c1	inconclusive: 12.6 µM [inhibitor, partial curve]	–
CCCN1Cc2cccc(C(=O)N3CCN(c4cc(Cl)ccc4C)CC3)c2C1=O	inconclusive: 31.6 µM [inhibitor, partial curve]	–
O=C(Cc1cccc2ccccc12)N/N=C1\CCCc2ccccc21	inconclusive: 50.1 µM [inhibitor, single point]	–
Cn1nc(C(=O)N2CCN(c3ccc(F)cc3)CC2)c2c1-c1ccccc1SC2	–	inactive: 42.6%
Clc1ccc(Cc2noc(-c3cccs3)n2)cc1	inconclusive: 22.4 µM [inhibitor, partial curve, poor fit]	–
COc1cc2c(cc1OC)C(c1cccc([N+](=O)[O-])c1)N(C(=O)c1ccc(F)cc1)CC2 (stereo unspecified)	inconclusive: 8.91 µM [inhibitor, full curve]	–
Cc1c(C)c2ccc(OC(C)C(=O)NCCc3c[nH]c4ccccc34)cc2oc1=O (stereo unspecified)	inconclusive: 39.8 µM [inhibitor, single point]	–
CCc1ccc(C(=O)c2cn(CC(=O)Nc3cc(F)ccc3F)c3nc(C)ccc3c2=O)cc1	inconclusive: 5.62 µM [inhibitor, full curve, poor fit]	–
CSc1nc(N)nc(SCCS(=O)(=O)c2ccc(Cl)cc2)c1C#N	–	inactive: 1.2%
COc1ccccc1NC(=O)c1sc2nc3c(cc2c1N)CN(Cc1ccccc1)CC3	inconclusive: 3.98 µM [inhibitor, full curve]	–
Cc1ccccc1C(=O)NCC(=O)NNC(=O)CCN1CCN(c2ccccc2)CC1	–	inactive: -3.22%
CC(=O)c1ccc(OC2C=CC(C#Cc3ccc(Br)cc3)OC2CO)cc1 (stereo unspecified)	inconclusive: 5.62 µM [inhibitor, single point]	–
CC(=O)c1cccc(NC(=O)NCc2ccc3c(c2)OCO3)c1	–	inactive: -13.2%
CCc1nc(C)cn1S(=O)(=O)c1ccc(Cl)c(Cl)c1OC	inconclusive: 35.5 µM [inhibitor, single point]	–
O=C(Nc1ccccc1)c1ccc(S(=O)(=O)NCc2cccnc2)cc1	–	inactive: -4.22%
CCNC(=S)NNC(=O)c1cc(-c2ccc(OC)cc2)nc2ccccc12	–	inactive: 1.8%
CCc1cc(=O)[nH]c(SCc2nc(-c3ccccc3)no2)n1	inconclusive: 28.2 µM [inhibitor, partial curve]	–
O=C(O)CC1S/C(=N/N=C/c2ccc(-c3ccc(Cl)cc3[N+](=O)[O-])o2)NC1=O (stereo unspecified)	inconclusive: 35.5 µM [inhibitor, partial curve]	–
COc1ccc(NC(=O)CN2CCC(C)CC2)c([N+](=O)[O-])c1	–	inactive: -4.1%
Cc1cc(NC(=O)COC(=O)c2n[nH]c3ccccc23)no1	–	inactive: -15.1%
CSCC[C@H](NC(=O)c1ccc(NC[C@@H](N)CS)cc1-c1ccccc1)C(=O)O	–	inactive: -13.1%
C[C@H](NC(=O)c1ccccc1Cl)C(=O)OCCOc1cccc(Cl)c1	inconclusive: 31.6 µM [inhibitor, single point]	–
Cn1c2ccccc2c2cnn(CC(=O)NCCCN3CCN(c4ccccc4F)CC3)c(=O)c21	inactive	–
O=C(Nc1ccccc1)N(Cc1cccc(Cl)c1)c1ccccn1	–	inactive: -2.5%

SMILES	Potency	activity change, negative = displacement
CC(=O)c1ccc(N2CCN(C(=O)Nc3ccc(C(C)C)cc3)CC2)cc1	inconclusive: 56.2 µM [inhibitor, single point]	–
Cc1ccccc1NC(=O)c1c(-c2ccccc2)noc1C	inconclusive: 17.8 µM [inhibitor, partial curve]	–
COc1ccc(/C(O)=C/Sc2nnc(Cc3ccccc3)o2)cc1	inconclusive: 25.1 µM [inhibitor, partial curve]	–
O=C(Nc1ccc2snnc2c1)N1CCN(c2ccccc2)CC1	inconclusive: 28.2 µM [inhibitor, partial curve]	–
CCCCOc1ccc(CSCCN)cc1Cl	inconclusive: 35.5 µM [inhibitor, partial curve]	–
O=C(NNC(=O)C1CC2CCC1C2)c1ccccc1 (stereo unspecified)	–	inactive: 5.22%
CCC(C)(C)NC(=O)CN(C(=O)CNS(=O)(=O)c1ccc(C)cc1)c1ccc2c(c1)OCCO2	inconclusive: 31.6 µM [inhibitor, single point]	–
Cc1ccc(C)n1CCN1CCN(CC(=O)Nc2cc(C(F)(F)F)ccc2Cl)CC1	inconclusive: 28.2 µM [inhibitor, single point]	–
C=C1CC2COC(=O)C2(Cc2ccc3ccccc3c2)C1 (stereo unspecified)	inconclusive: 50.1 µM [inhibitor, single point]	–
Cc1cccc(C(=O)N2CCc3cc(CNS(=O)(=O)c4ccc(F)c(Cl)c4)ccc32)c1	–	inactive: -14.6%
COc1ccc(C(=O)COC(=O)CNC(=O)C2CCCCC2)c(OC)c1	inconclusive: 39.8 µM [inhibitor, partial curve]	–
COc1ccccc1CC(=O)Nc1ccc2nc(Nc3cccc(Cl)c3)cc(C)c2c1	–	inactive: 26.9%
CSc1ccccc1N1CCN(C(=O)Nc2ccc3c(c2)NC(=O)CO3)CC1	inconclusive: 22.4 µM [inhibitor, partial curve]	–
Cc1ccccc1CSCc1nc(N)nc(Nc2ccccc2C)n1	–	inactive: -0.255%
COc1ccc(-c2csc3ncnc(Nc4cc(OC)cc(OC)c4)c23)cc1	–	inactive: 33.8%
COc1cc(NS(=O)(=O)c2cc3c(cc2C)NC(=O)CO3)cc(OC)c1	–	inactive: -15.8%
COC(=O)Nc1ccc(SCC(=O)c2ccc(Cl)cc2)cc1	inconclusive: 22.4 µM [inhibitor, partial curve]	–
CC1CCN(C(=O)CSc2nc3ccccc3nc2Cc2ccccc2)CC1	inconclusive: 50.1 µM [inhibitor, single point]	–
O=C(CSc1nccn1-c1ncc(C(F)(F)F)cc1Cl)c1ccc(Cl)cc1	inconclusive: 39.8 µM [inhibitor, partial curve]	–
Cc1ccc(C(=O)Cn2nnc3ccccc32)cc1C	inconclusive: 31.6 µM [inhibitor, partial curve]	–
COc1cccc(CN2CC(C(=O)NCCc3ccc(C)o3)CCC2=O)c1 (stereo unspecified)	–	inactive: -7.4%
N#C/C(=C(/O)CN1CCCCC1)c1nc(-c2ccc(Cl)cc2)cs1	–	inactive: -11.7%
CN(Cc1ccccc1)c1ccc(N2C(=O)CCC2=O)cc1[N+](=O)[O-]	inconclusive: 31.6 µM [inhibitor, partial curve]	–
O=C(NCCc1csc(-c2cccnc2)n1)c1c(F)cccc1F	–	inactive: -2.7%

SMILES	Potency	activity change, negative = displacement
Nc1ccc(C23CC4CC(CC(CO)(C4)C2)C3)cc1	inconclusive: 11.2 µM [inhibitor, full curve]	–
CCN1/C(=C/C=C/c2oc3ccc4ccccc4c3[n+]2CC)Oc2ccc3ccccc3c21	inconclusive: 31.6 µM [inhibitor, partial curve]	–
CCc1occc(=O)c1Oc1cc(NN2CCCCC2)c([N+](=O)[O-])cc1[N+](=O)[O-]	inconclusive: 25.1 µM [inhibitor, partial curve]	–
Cc1cc(C)c(NC(=O)CSc2nnc(Cc3cccn3C)n2-c2ccc(F)cc2)c(C)c1	inconclusive: 39.8 µM [inhibitor, single point]	–
CSc1ncccc1C(=O)Nc1nc2ccc(Oc3ccccc3)cc2s1	–	inactive: -15.8%
O=C(CNc1cccc2ccccc12)N/N=C/c1ccc(OC(=O)/C=C/c2ccco2)cc1	–	inactive: -14.6%
O=C(OCC(=O)N1CCc2ccccc21)c1ccc[nH]c1=O	–	inactive: -9.81%
CC1CCCN(c2nc3c(c(=O)n(C)c(=O)n3C)n2Cc2ccccc2)C1 (stereo unspecified)	inconclusive: 35.5 µM [inhibitor, partial curve]	–
CCCN1C(=O)/C(=C/c2ccc(C)o2)SC1=Nc1ccc(OC)cc1	–	inactive: -18.7%
CCOc1ccc(NC(=O)c2cc(C)nc3c2c(C)nn3-c2ccc(C)cc2)cc1	inconclusive: 2.24 µM [inhibitor, partial curve]	–
O=S(=O)(Nc1ccc(-n2cccc2)cc1)c1ccc(F)cc1	inconclusive: 28.2 µM [inhibitor, single point]	–
Nc1nc(Nc2ccccc2)nc(NCc2ccco2)c1[N+](=O)[O-]	inconclusive: 25.1 µM [inhibitor, partial curve]	–
CCn1c(O)c(C=NC2CCCC(C)C2C)sc1=S (stereo unspecified)	inconclusive: 39.8 µM [inhibitor, single point]	–
O=C(c1ccco1)N(Cc1ccccc1)c1cccc([N+](=O)[O-])c1	inconclusive: 35.5 µM [inhibitor, partial curve]	–
O=C1COc2ccc(C(=O)CSc3nnc(Cc4cccs4)n3-c3ccccc3)cc2N1	inconclusive: 15.8 µM [inhibitor, partial curve]	–
COc1cccc(-n2c(SCc3ccc(F)cc3)nc3c([nH]c4ccccc43)c2=O)c1	–	inactive: -8.2%
Cc1cccc(C(=O)Nc2ccc(NC(=O)Cc3ccc(Cl)cc3)cc2)c1	–	inactive: -6.2%
O=c1nc(N2CCCCC2)nc(Nc2ccccc2)[nH]1	inconclusive: 28.2 µM [inhibitor, single point]	–
Nc1nn(-c2ccccc2)c(N)c1N=Nc1ccc2c(c1)OCO2	–	inactive: -23.7%
COc1ccc(C(C(=O)Nc2ccc(C(C)C)cc2)N(C)C(=O)CNC(C)=O)cc1 (stereo unspecified)	inconclusive: 39.8 µM [inhibitor, single point]	–
CCOC(=O)c1[nH]c(Cc2[nH]c(C(=O)OCC)c(C)c2CCC(=O)OC)c(CCC(=O)OC)c1C	inconclusive: 20 µM [inhibitor, partial curve]	–
CC(=O)c1c(C)oc2c1cc(NS(=O)(=O)c1ccc(C(C)(C)C)cc1)c1ccccc12	inconclusive: 6.31 µM [inhibitor, full curve, poor fit]	–
Cc1cc(C)nc(SCc2nc3nc(C)cc(C)n3c2Br)n1	inconclusive: 28.2 µM [inhibitor, partial curve]	–
